This note sets out measurements from PubChem BioAssay (NCI).

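Dose response: 5 concentrations. Exposure: 48 h. Format: 96-well plates. Endpoint: linear interpolation; highest concentration if not reached. GI50 is the concentration that inhibits growth by half. TGI: concentration producing complete growth inhibition.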 Square brackets hold non-standard residues; d marks the D form. Peptide text beside a SMILES is read from it. * marks the point of attachment. Lauroyl = CCCCCCCCCCCC(=O)*; Aib = CC(C)(N)C(=O)O; βAla = NCCC(=O)O

The test has as its system NCI-H322M lung. Nature of the test: inhibition of tumour cell growth, NCI panel, 48 h.
`CC1(C)[C@@H](O)CC[C@]2(C)[C@H]3CC[C@@H]4[C@H]5[C@H](C(=O)/C=C\c6ccccn6)CC[C@]5(O)CC[C@@]4(C)[C@]3(C)CC[C@@H]12`: the GI50 was 4.17 µM and the TGI is 35 µM.

As for `CCCn1cnc2c(c1=N)C(c1ccc(Cl)cc1)c1sc3c(CC)cccc3c1O2` (stereo not drawn), the GI50 is 3.11 µM and the TGI was found to be 24.2 µM.

For the compound `C=C(C=O)[C@@H]1CC[C@]2(CO)CC[C@]3(C)[C@H](CC[C@@H]4[C@@]5(C)CCCNC(C)(C)[C@@H]5CC[C@]43C)[C@@H]12`, the GI50 is 29.4 µM and the TGI is more than 100 µM.

Take `CCCCCCCCCCCC(=O)NC(C)(C)C(=O)N1CCCC1C(=O)NC(C)(C)C(=O)NC(C)(C)C(=O)N1CCCC1C(=O)NC(C)(C)C(=O)NC(C)(C)C(=O)N1CCCC1C(=O)NC(C)C(=O)NCCC(=O)NC(C)C(=O)NC(C)(C)C(=O)NC(C)(C)C(=O)NC(C)(C)C(=O)NCCC(=O)NC(C)(C)C(=O)NC(C)(C)C(=O)NC(C)(C)C(=O)NC(C)C(=O)NCCC(=O)O` (stereo not drawn) (Lauroyl-[Aib]P[Aib][Aib]P[Aib][Aib]PA[βAla]A[Aib][Aib][Aib][βAla][Aib][Aib][Aib]A[βAla]-OH; configuration not given here): the GI50 is 0.428 µM and the TGI came to 1.29 µM.
